# Measurements as given in paper PMC4336329 (PLoS ONE, 2015).
# Screen size: about 310,000 compounds; about 14,000 (4.5%) showed an effect of 50% or more. The effect is printed as a negative number. The list shows a part of the results.
# Target: human ether-à-go-go-related gene (hERG) potassium channel (human, UniProt Q12809)
# Assay: primary screen, population patch clamp on CHO cells stably expressing hERG
# 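Also: peak tail current of the secondary pulse compared with the same well before compound.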
# human ether-à-go-go-related gene (hERG) potassium channel, sequence (Q12809 whole entry, looked up): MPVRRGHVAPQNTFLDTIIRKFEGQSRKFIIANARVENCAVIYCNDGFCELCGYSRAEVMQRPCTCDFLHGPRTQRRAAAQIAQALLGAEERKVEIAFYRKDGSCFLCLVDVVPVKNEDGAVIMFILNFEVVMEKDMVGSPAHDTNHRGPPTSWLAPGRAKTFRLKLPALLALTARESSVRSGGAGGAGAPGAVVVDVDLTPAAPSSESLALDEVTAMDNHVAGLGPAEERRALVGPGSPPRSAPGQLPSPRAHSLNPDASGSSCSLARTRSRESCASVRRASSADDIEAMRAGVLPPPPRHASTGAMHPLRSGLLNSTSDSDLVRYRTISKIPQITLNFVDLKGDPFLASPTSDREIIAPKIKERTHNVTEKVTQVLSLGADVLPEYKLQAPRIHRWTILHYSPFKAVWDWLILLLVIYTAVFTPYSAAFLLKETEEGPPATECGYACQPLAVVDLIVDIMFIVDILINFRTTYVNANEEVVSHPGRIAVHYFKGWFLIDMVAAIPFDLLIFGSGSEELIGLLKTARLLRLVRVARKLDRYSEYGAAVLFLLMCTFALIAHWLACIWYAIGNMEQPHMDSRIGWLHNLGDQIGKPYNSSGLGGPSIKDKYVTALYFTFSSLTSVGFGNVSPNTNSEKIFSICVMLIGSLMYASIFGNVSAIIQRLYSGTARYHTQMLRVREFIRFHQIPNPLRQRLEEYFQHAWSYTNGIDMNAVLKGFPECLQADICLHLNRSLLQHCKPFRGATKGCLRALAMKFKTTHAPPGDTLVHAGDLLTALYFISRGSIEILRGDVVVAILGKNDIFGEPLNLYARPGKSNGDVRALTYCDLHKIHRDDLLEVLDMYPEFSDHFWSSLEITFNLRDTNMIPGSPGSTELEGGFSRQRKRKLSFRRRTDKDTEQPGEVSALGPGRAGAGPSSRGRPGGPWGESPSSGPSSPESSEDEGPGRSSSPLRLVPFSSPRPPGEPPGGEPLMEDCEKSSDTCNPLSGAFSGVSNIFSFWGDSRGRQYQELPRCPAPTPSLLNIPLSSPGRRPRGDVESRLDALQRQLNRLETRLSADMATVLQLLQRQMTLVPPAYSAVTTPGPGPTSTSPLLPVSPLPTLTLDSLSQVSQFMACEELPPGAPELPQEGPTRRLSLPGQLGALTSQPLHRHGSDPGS
row,SMILES,"hERG current change (%, negative = inhibition) at 10uM"
1,Cc1ccc(NC(=O)CS(=O)CC(=O)N(CC(=O)NC2CCCC2)c2cc(C)ccc2C)cc1 (stereo not shown),-31.6%
2,COc1ccc(C(=O)Nc2ccc(SC(F)F)cc2)cc1,-2.14%
3,CCN(C(=O)COc1ncnc2ccc(Br)cc12)C1CCS(=O)(=O)C1 (stereo not shown),1.58%
4,Cc1oc(-c2ccccc2Cl)nc1CS(=O)(=O)CC(=O)NCCc1ccccc1,-18%
5,CCC(COC(=O)NC)NC(=O)Oc1ccccc1 (stereo not shown),-4.44%
6,O=C(NCCCn1cccn1)C1CCC(=O)N(Cc2cccc(C(F)(F)F)c2)C1 (stereo not shown),8.62%
7,COc1ccccc1C(=O)NC(CCSC)C(=O)N1CCC(Cc2ccccc2)CC1 (stereo not shown),-23.1%
8,Cc1ccc(CNC(=O)c2ccccc2N)cc1,5.16%
9,CCCn1c(N/N=C\C=C\c2ccccc2)nc2c1c(=O)[nH]c(=O)n2C,-29%
10,CSc1cccc(NC(=O)C(C)Sc2ccc(C)cc2)c1 (stereo not shown),-5.32%
11,NS(=O)(=O)c1ccc(NC(=O)COC(=O)c2cc3ccccc3oc2=O)cc1,-5.94%
12,Cc1ccc(C(=O)NCCCN2CCOCC2)cc1N1CCCC1=O,8.7%
13,O=C(C1CCN(S(=O)(=O)c2cccc3cccnc23)CC1)N1CCN(C2CCCCC2)CC1,-0.647%
14,Cc1[nH]c2ccccc2c1C(=O)CN1CCN(C/C=C/c2ccccc2)CC1,-73.4%
15,COCCNc1nc(-c2cc(C(=O)Nc3ccccc3)on2)cc(C(C)C)n1,-18.8%
16,COCCn1c(=S)[nH]c2cc(C(=O)N3CCN(c4ccccc4OC)CC3)ccc2c1=O,10.1%
17,CCOc1ccc2[nH]c(C)c(CN3CCN(C)CC3)c(=O)c2c1,-12.7%
18,Cc1ccc(NC(=O)c2cc(C)no2)cc1,16.9%
19,CC(C)[C@H](NC(=O)Nc1ccc(Oc2ccccc2)cc1)C(=O)O,-5.32%
20,CCOC(=O)N1CCC(=NNc2nc3ccccc3s2)CC1,-4.59%
21,COc1cc(/C=C(\C#N)c2nnc(N3CCOCC3)n2-c2ccccc2)ccc1O,1.64%
22,Cc1ccc(C)c(OCC(=O)Nc2ccc(N3CCOCC3)cc2N2CCOCC2)c1,-49.8%

row,SMILES,"hERG current change (%, negative = inhibition) at 10uM"
1,Cc1cc(C)c(C)c(S(=O)(=O)NCc2ccc(C(=O)NCC3CCCO3)cc2)c1C (stereo not shown),-11%
2,CCOC(=O)CSc1ncccn1,8.18%
3,O=C(COc1ccccc1)OCC(=O)c1ccc(S(=O)(=O)N2CCCCC2)cc1,17.4%
4,O=S(=O)(Nc1ccc2c(c1)OCCO2)c1cccc2nsnc12,-11.2%
5,Cc1ccc(S(=O)(=O)N(C)C)cc1NC(=O)COC(=O)c1ccc2c(c1)NC(=O)CS2,-32.5%
6,CSc1ccccc1C(=O)N1CCC(CCC(=O)NC2CC2)CC1,11.6%
7,COc1ccc(C2(c3ccc(OC)cc3)NC(=O)N(CC(=O)NC3(C#N)CCCCC3)C2=O)cc1,-42.4%
8,O=C(c1ccc(-n2cccc2)cc1)N1CCOCC1,-3.34%
9,CCOc1ccc(CCNC(=O)CCNS(=O)(=O)c2ccc3c(c2)CCN3C(C)=O)cc1OCC,0.411%
10,Cc1c(CCC(=O)N2CCC[C@H]2C(=O)O)c(=O)oc2cc3oc4c(c3cc12)CCCC4,8.7%
11,COc1ccc(C(C(=O)NCC2CCCO2)N(C(=O)CNC(=O)c2ccco2)c2cc(C)ccc2C)cc1OC (stereo not shown),16.5%
12,O=C(Cn1nnc2ccccc2c1=O)N1CCCc2ccccc21,-13.7%
13,O=C(N=C1SC2CS(=O)(=O)CC2N1c1ccc(OC(F)(F)F)cc1)C1CC1 (stereo not shown),7.09%
14,Cc1nc(C)c(-c2ccc(SCC(=O)Nc3ccc(C)c(Cl)c3)nn2)s1,21.8%
15,COc1ccc(S(=O)(=O)NCC(c2ccc3c(c2)OCO3)N2CCOCC2)cc1C (stereo not shown),-15.8%
16,CSCCC(=O)N1CCC(n2nccc2NC(=O)CCc2ccccc2)CC1,4.53%
17,Cc1ccc(S(=O)(=O)NCc2ccccc2)cc1C(=O)N(C)Cc1ccccc1F,-45.1%
18,CC(C)(C)OC(=O)CNC(=O)c1nc[nH]c1C(=O)N1CCN(C(=O)OC(C)(C)C)CC1,-15.8%
19,Cc1cccc(Nc2nc(N3CCN(C)CC3)nc(N)c2[N+](=O)[O-])c1,-39.3%
20,COc1ccccc1CCNS(=O)(=O)c1c(C)n(C)c(=O)n(C)c1=O,7.84%
21,CC(/C=N/N1CCN(c2ccccc2)CC1)=C\c1ccccc1,0.134%
22,O=C(COC(=O)Cc1c(F)cccc1Cl)NC1CCS(=O)(=O)C1 (stereo not shown),20.7%

row,SMILES,"hERG current change (%, negative = inhibition) at 10uM"
1,CCc1cc2c(=O)n(C(C)C(=O)OC3CCCCC3)cnc2s1 (stereo not shown),-23.4%
2,COc1ccc(OC)c(NC(=O)Cc2coc3ccc4ccccc4c23)c1,0.772%
3,O=C(O)c1n[nH]c2c1CC(C1CCCCC1)CC2 (stereo not shown),13%
4,O=C(Nc1cc(Cl)cc(Cl)c1)C(NCCCO)c1ccccc1 (stereo not shown),3.1%
5,CN(CC(=O)NCc1ccco1)S(=O)(=O)c1ccc(F)cc1,14.4%
6,COCCOC(=O)c1c(C)n(C)c2ccc(OC(=O)c3c(OC)cccc3OC)cc12,24%
7,COc1ccc(C(=O)NC2CC3CCCC(C2)N3Cc2ccccc2)cc1OC (stereo not shown),-23.6%
8,CC(=O)/C(C#N)=C1\NC(=O)C(Cc2ccc(C)c(Cl)c2)S1 (stereo not shown),18.5%
9,CCC(=O)c1ccc(OCC(=O)OCC(=O)N2c3ccccc3NC(=O)C2(C)C)cc1,2.82%
10,Cc1ccc(N2C(=O)c3ccc(C(=O)N4CCN(c5ccc(C)c(C)c5)CC4)cc3C2=O)cc1,8.32%
11,CCC(=O)NNc1nc2c(C)cccc2s1,26%
12,Cc1ccc(C)c(NC(=O)C2CCCN2/C=C/C(=O)C(F)(F)F)c1 (stereo not shown),3.29%
13,O=C(O)c1cccc(Sc2ccc(Br)cc2C(=O)O)c1,27.7%
14,COc1cccc(C2=NOC(C(=O)N3CCN(Cc4ccccc4)CC3)C2)c1OC (stereo not shown),-27.3%
15,CCC(=O)Nc1ccc(Cl)c(NC(=S)NC(C)=O)c1,11.7%
16,CCOC(=O)C1CCN(C(=O)Cc2ccc(C)cc2)CC1,-1.62%
17,O=C(O)c1ccc2c(c1)C(=O)N(CCC1=CCCCC1)C2=O,26.8%
18,C=CCn1c(O)c2ccc(C(=O)N=NC(=O)COc3ccc(OC)cc3)cc2c1O,-12%
19,Cc1cc(=O)oc2c(C)c(OC(C)C(=O)Nc3ccc(N4CCC(C)CC4)cc3)ccc12 (stereo not shown),23.3%
20,O=C(CCCn1ncn2c(cc3occc32)c1=O)NCc1ccccc1F,-12.4%
21,O=C(NCC1CCCCC1)c1ccc(F)cc1Cl,-5.71%
22,COC(=O)N1C(=O)[C@](CC(C)C)(c2ccccc2)N1C(=O)OC,12.5%

row,SMILES,"hERG current change (%, negative = inhibition) at 10uM"
1,O=C(NCC1CCCO1)c1c(O)c2c([nH]c1=O)CCCC2 (stereo not shown),5.78%
2,O=C(NC(=S)Nc1cccc2c(O)cccc12)c1ccco1,-0.623%
3,Cc1ccc(NC(=O)N(Cc2ccco2)C(C)c2ccco2)cc1C (stereo not shown),-17%
4,Cc1onc(-c2c(F)cccc2Cl)c1C(=O)NCc1ccc(S(N)(=O)=O)cc1,-10%
5,CC(C)(CN=C1NS(=O)(=O)c2ccccc21)CNC(=O)c1ccccc1,-16.4%
6,CC(NC(=O)c1ccc([N+](=O)[O-])o1)C12CC3CC(CC(C3)C1)C2 (stereo not shown),-30.2%
7,CC(C)(C)CC(=O)NCCCCCCNC(=O)CC(C)(C)C,3.04%
8,COc1ccccc1N(C(=O)c1snc(C(N)=O)c1N)C(C(=O)NC1CCCCC1)c1cccc(OC)c1OC (stereo not shown),-15.7%
9,O=C(O)c1oc2ccccc2c1CN1CCN(c2ccccc2)CC1,-3.37%
10,O=S(=O)(NCCc1ccc(Cl)cc1)c1cccc2cccnc12,-48.5%
11,Cc1ccccc1OCc1nc(C#N)c(N2CCCC2)o1,-36.3%
12,O=C(CC1C(=O)NCCN1Cc1ccccc1C(F)(F)F)NCCn1cccn1 (stereo not shown),25.7%
13,C/C(=N\NC(=O)CCCNc1cccc(C)c1)c1ccncc1,0.987%
14,O=C(CN1CCOCC1)Nc1nc2ccc(Cl)cc2s1,-33.8%
15,CCCCOc1ccc(N=Cc2cccs2)cc1,-7.49%
16,O=C(CSc1nnc(-c2ccccn2)o1)Nc1ccc(F)cc1,-22.6%
17,CC1CN(CCC(=O)Nc2ccc3c(c2)CCC3)CC(C)O1 (stereo not shown),7.82%
18,O=C(CCNC(=O)c1ccc([N+](=O)[O-])cc1)NCCc1ccccc1,-27.8%
19,CC1CC(C)CN(c2oc(-c3ccccc3F)nc2C#N)C1 (stereo not shown),5.9%
20,CCCC1=C(C(=O)OCC)C2(C(=O)Nc3ccccc32)C(C#N)=C(N)O1 (stereo not shown),8.72%
21,CN1CCN(c2ccccc2NC(=O)Cc2ccc(Cl)cc2)CC1,-73.4%
22,Cc1cc2cc(C)c(NCCNC(=O)c3ccccc3)nc2cc1C,6.9%
